# Measured values as given in PubChem BioAssay AID1645886 (National Center for Advancing Translational Sciences (NCATS), 2021).
# Where “and” joins values, the source holds several entries; their conditions need not be identical. Equal entries are not always repeated. Screen size: about 16,000 compounds; about 260 (1.6%) were called active. Inconclusive results, whose numbers are uncertain, are shown with a selection of clear calls. The call rests on the fitted dose curve; in most records, active means well fitted inhibition curve with a large enough effect; inconclusive means small, poorly fitted or top-dose-only effect; inactive means no such curve, though single readings can be large or run the other way. Where the call is inconclusive, the potency comes from a doubtful curve fit. Some compounds were tested as several samples or in several runs, with calls that do not always agree.
# Target: Rap guanine nucleotide exchange factor 4 (Homo sapiens) (UniProt Q8WZA2)
# Test: Validation qHTS for antagonist of cAMP-regulated guanine nucleotide exchange factor 4 (EPAC2); further: nearly all actives have a fitted effect of over 40% in size
# Details: EPAC2 Rap1B BODIPY-GDP exchange, fluorescence; activity, negative = inhibition: at 112 µM (top of the series)
# Procedure, shortened: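 Normalized against a 6.5 mM cAMP agonist control, compounds were tested on 100 nM EPAC2 exchanging Rap1B-bound BODIPY-GDP (250 nM) for 50 uM GDP. Fluorescence drop (ex 480, em 540 nm) was tracked at room temperature over 30 min at 5-min intervals.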
# Potency means the concentration at half of the fitted maximal effect; tags describe the fitted curve by direction and shape.
# Sequence of UniProt Q8WZA2 (Q8WZA2 whole entry, looked up): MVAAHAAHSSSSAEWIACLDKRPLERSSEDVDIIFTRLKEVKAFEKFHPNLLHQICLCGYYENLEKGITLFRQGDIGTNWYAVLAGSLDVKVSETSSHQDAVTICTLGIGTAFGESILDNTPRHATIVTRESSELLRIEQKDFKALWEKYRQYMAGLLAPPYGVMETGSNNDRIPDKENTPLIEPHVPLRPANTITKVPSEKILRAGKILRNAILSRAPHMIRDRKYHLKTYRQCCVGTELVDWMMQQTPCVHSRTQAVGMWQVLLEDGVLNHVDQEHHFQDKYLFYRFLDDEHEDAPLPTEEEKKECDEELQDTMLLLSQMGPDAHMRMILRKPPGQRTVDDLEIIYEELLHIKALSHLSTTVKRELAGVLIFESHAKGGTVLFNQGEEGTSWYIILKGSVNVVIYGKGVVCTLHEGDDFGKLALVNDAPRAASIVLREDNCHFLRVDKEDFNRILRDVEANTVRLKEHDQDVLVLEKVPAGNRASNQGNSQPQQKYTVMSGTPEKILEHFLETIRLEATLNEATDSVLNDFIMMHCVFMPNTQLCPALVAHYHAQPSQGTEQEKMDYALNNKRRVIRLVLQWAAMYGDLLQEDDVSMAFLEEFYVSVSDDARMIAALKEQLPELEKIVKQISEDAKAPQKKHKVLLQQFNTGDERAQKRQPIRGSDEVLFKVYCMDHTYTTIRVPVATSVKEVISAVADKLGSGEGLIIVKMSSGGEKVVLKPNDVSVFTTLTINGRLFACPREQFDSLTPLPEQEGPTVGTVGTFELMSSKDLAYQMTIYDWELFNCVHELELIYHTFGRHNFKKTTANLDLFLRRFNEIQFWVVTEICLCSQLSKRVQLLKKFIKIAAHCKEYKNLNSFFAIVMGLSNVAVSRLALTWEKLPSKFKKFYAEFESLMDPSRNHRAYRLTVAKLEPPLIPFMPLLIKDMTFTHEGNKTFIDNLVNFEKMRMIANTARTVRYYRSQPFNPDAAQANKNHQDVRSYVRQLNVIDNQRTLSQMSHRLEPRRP
Structure (SMILES),Potency,"activity, negative = inhibition"
Clc1cccc[n+]1CCCCCC[n+]1ccccc1Cl,"inconclusive: 22.4 µM [inhibitor, partial curve, poor fit]",–
Nc1cccc2c(N)cccc12,"inconclusive: 70.8 µM [inhibitor, full curve]",–
CC(C(=O)O)c1ccc(C(=O)c2cccs2)cc1 (stereo not given),"inconclusive: 89.1 µM [inhibitor, single point]",–
CN(CC1COCCO1)C(=O)c1cnn(-c2nccc(-c3ccccc3C(F)(F)F)n2)c1C1CC1 (stereo not given),–,inactive: -2.76%
CN(C)c1ccc(/C=C/c2c3ccccc3nc3ccccc23)cc1,–,inactive: -10.7%
O=C(Nc1cccc(F)c1)N1CCC2(CC1)CCN(C(=O)c1cc(C(F)(F)F)cc(C(F)(F)F)c1)CC2,"inconclusive: 39.8 µM [inhibitor, partial curve, poor fit]",–
Cc1noc(C)c1C(=O)N1CCC2(CCCN(c3ncccn3)C2)CC1,–,inactive: -23.8%
NC1[C@H]2CN(c3nc4c(cc3F)c(=O)c(C(=O)O)cn4-c3ccc(F)cc3F)C[C@@H]12 (stereo not given in full),–,inactive: -5.87%
CN(C)CCCc1cc(C(=O)Nc2ccc(-c3ccncc3)cc2)ccc1O,"inconclusive: 44.7 µM [inhibitor, partial curve, poor fit]",–
O=C(c1ccco1)N1CCC2(CCCN(c3ccccc3)C2)CC1,"inconclusive: 63.1 µM [inhibitor, partial curve, poor fit]",–
O=C(c1cccc(Cn2cccn2)c1)N1CCOc2c(cc(-c3csc4ccccc34)cc2OC2CCOC2)C1 (stereo not given),–,inactive: -25.5%
CCC[C@H]1COCCS(=O)(=O)N1Cc1ccc(F)cc1,"inconclusive: 2.51 µM [inhibitor, full curve, poor fit]",–
COCC(=O)N1CCC2(CCCN(Cc3cc(C(F)(F)F)cc(C(F)(F)F)c3)C2)CC1,"inconclusive: 25.1 µM [inhibitor, full curve]",–
Cc1cccc(/C=C\c2ccccc2)n1,"inconclusive: 50.1 µM [inhibitor, partial curve, poor fit]",–
CCC1(C)CC(=O)NC1=O (stereo not given),"inconclusive: 39.8 µM [inhibitor, single point]",–
COc1cc(CNC(=O)CCCCCCC(C)C)ccc1O,"inconclusive: 56.2 µM [inhibitor, partial curve] and inconclusive: 56.2 µM [inhibitor, partial curve, poor fit]",–
O=C(NCCc1ccccc1)[C@@H]1CC=C[C@@H]2CCN(Cc3ccc(Cl)c(Cl)c3)C(=O)[C@@H]21,"inconclusive: 89.1 µM [inhibitor, single point]",–
c1ccc(CN2CCN(Cc3ccc4c(c3)CN(Cc3c[nH]c5ccccc35)CCO4)CC2)nc1,–,inactive: 1.14%
CCCCOC(=O)c1cc2c(cn1)[nH]c1ccccc12,"inconclusive: 50.1 µM [inhibitor, partial curve, poor fit]",–
CC(C)(C)CC(C)(C)N=C1Nc2ccc(Cl)cc2NC12C[C@H]1CCC(=O)N3CC[C@@H](C2)[C@@H]13 (stereo not given in full),"inconclusive: 0.501 µM [inhibitor, full curve, poor fit]",–

Structure (SMILES),Potency,"activity, negative = inhibition"
Cc1cnc(C(=O)NCc2c(C)ncc3c2CCN(C(=O)/C=C/c2cccs2)C3)cn1,"inconclusive: 89.1 µM [inhibitor, partial curve, poor fit]",–
CC(=O)Oc1ccc(C(c2ccc(OC(C)=O)cc2)c2ccccn2)cc1,active: 39.8 µM and active: 17.8 µM,–
O=c1c(CCc2ccccc2)nc2cnc(Oc3ccccc3)nc2n1C1CC1,–,inactive: -46.4%
Cc1ncc2c(c1CNC(=O)/C=C/c1cccs1)CCN(C(=O)c1noc3c1CCCC3)C2,–,inactive: -1.68%
CC(N)(C(=O)O)c1ccc(-c2nn[nH]n2)cc1 (stereo not given),–,inactive: 3.75%
COc1ccc(CNc2cc(-c3ccccc3C)ncn2)c(OC)c1,"inconclusive: 35.5 µM [inhibitor, full curve]",–
O=C(NC[C@@H]1CCCN2CCCC[C@H]12)c1cnn(-c2nccc(-c3ccco3)n2)c1C1CC1,–,inactive: -2.81%
O=C(c1cccc(F)c1)N1CCC2(CCCN(Cc3cc(C(F)(F)F)cc(C(F)(F)F)c3)C2)CC1,"inconclusive: 28.2 µM [inhibitor, full curve, poor fit]",–
O=C1Nc2ccc(Cl)cc2[C@@](C#CC2CC2)(C(F)(F)F)O1,"inconclusive: 70.8 µM [inhibitor, partial curve, poor fit]",–
C=CCN1[C@@H](C(C)C)COCCS1(=O)=O,"inconclusive: 89.1 µM [inhibitor, single point]",–
COc1ccc(CCCO[C@@H](Cn2ccnc2)c2ccc(OC)cc2)cc1,"inconclusive: 79.4 µM [inhibitor, partial curve, poor fit]",–
NC(N)=NCCCCN=C(N)N,"inconclusive: 100 µM [inhibitor, partial curve, poor fit]",–
O=C(O)c1ccccc1Nc1cccc(C(F)(F)F)c1,"active: 35.5 µM and inconclusive: 63.1 µM [inhibitor, partial curve, poor fit]",–
CC[N+](C)(CC)CCC[n+]1c(-c2ccccc2)c2cc(N)ccc2c2ccc(N)cc21,active: 50.1 µM,–
COc1cccc(CNC(=O)c2c(OC)cc(=O)n3c2CCN(C(=O)c2ccc(C)nc2)CC3)c1,"inconclusive: 44.7 µM [inhibitor, single point]",–
Clc1ccc(C(c2ccccc2Cl)C(Cl)Cl)cc1 (stereo not given),"inconclusive: 39.8 µM [inhibitor, partial curve] and active: 14.1 µM and inactive",–
COc1ccc(CN2CC[C@H]3C=CC[C@@H](C(=O)Nc4ccc(Cl)c(C(F)(F)F)c4)[C@H]3C2=O)cc1OC,"inconclusive: 100 µM [inhibitor, single point]",–
Cc1c(S(=O)(=O)O)oc2c1C(=O)C(=O)c1c-2ccc2c1CCCC2(C)C,active: 44.7 µM,–
O=C(CN1Cc2ccccc2OC(c2ccsc2)C1)NCc1ccc2c(c1)OCO2 (stereo not given),"inconclusive: 31.6 µM [inhibitor, partial curve, poor fit]",–
O=C(C[n+]1cccc(Br)c1)c1ccc(I)cc1,–,inactive: -4.45%
